Assay results from the RNAGym collection of RNA variant scans (doi:10.7554/elife.90254).
The source gives no read counts; variants with many changes may rest on few reads.

B1: LINE1-mini (parent)
chain: GGCAGAGCUCAACACAGCGUGGCAAAGUGGCUGUGGCUAGACUGCC

Variants of: B1
Assay: self-cleavage, relative activity (ratio to wild type); higher = more cleavage; in vitro, sequencing; the parent is a self-cleaving ribozyme

Variant | self-cleavage
GGCAGAAAUCAACACAGCGUGGCAAAGUGGCGGUGGCUAGUCUGCC [G7A C8A U32G A41U] | 0.15
UGCAGAGCUCAACACAGCGUGGCUAAGUAGCGGUGGCUAGACUGCU [G1U A24U G29A U32G C46U] | 0.44
GGCCGAGCUCAACACAGUGUGGCAAAGUCGCUGUGGCUAGUCUGCC [A4C C18U G29C A41U] | 0.1
GGCAAAUCUCAACACCGCGUGGCAAAGUGGCUGUGGCUAUACUGCC [G5A G7U A16C G40U] | 0.29
GGCAGAGCUGAACACAGCGUGGCAAAGUGGCUGUGGCUAGAGUAUC [C10G C42G G44A C45U] | 0.03
GGCAGAGUUCAACACAUGGUGGCAAUGUGGUUGUGGCGAUACUGCC [C8U G17U C18G A26U C31U U38G G40U] | 0.02
GGCAGCGCUCAACACAGCGUGGCAAGGUGGCUGCGGCUACACUGCC [A6C A26G U34C G40C] | 0
GGCAGAGCUCAACAACGCGUGGCAAAUUGGCUGUGGCUAGACUGCC [C15A A16C G27U] | 0.05
GGCAGAGACCAACACAGCGUGGCAAAGUGGCUAUGGCUAGACUGCC [C8A U9C G33A] | 0.03
GGCAGACCUCAAAACAGCGUGGUAAAUUGGCCGUGGCUAGACUGCC [G7C C13A C23U G27U U32C] | 0.02
GGCAGAGCUCAAGACAGCUUGGCAAAGUGGCUGUGGCUAUACUGCC [C13G G19U G40U] | 0
GGCAGAGCUCAACACACACUAGCAAAGUUGCUGUGGCUAGAUUGCC [G17C C18A G19C G21A G29U C42U] | 0.13
GGCAGAACUCAACACAGCGUGGCAAAGUGGCUGUGGCCAUACUACC [G7A U38C G40U G44A] | 0.15
GGCAGAGCUCAACACAGCGUGGCUAAGUUGAUGCAGCUAGACAGCC [A24U G29U C31A U34C G35A U43A] | 0.02
GACAGAGCUCAACAAAGCGUGGCAAAGUGGCCGUGGCUAGACUGCC [G2A C15A U32C] | 0.09
GGCAGGGCACAACAUAGCGUGGCAAAGUGGCUGUGGCUAGACUGUC [A6G U9A C15U C45U] | 0.14
UGCAGAGCUCAACACAGCGCGGCCAAGUGGCUGUGGCUAGACUGCC [G1U U20C A24C] | 0.44
GGCAGAGCUCAACACAGCGUGGCAAAGUGGCUGGUGCAAGACUGCC [U34G G35U U38A] | 0.02
GAGAGAGCUCAACACAGCGUUGCAAAGUGGCUGUGGCUAGACUGCC [G2A C3G G21U] | 0.92

Variant | self-cleavage
GGCAGAGGUCAACAUAGCGAUCCGAAGUGGCUCUGGCUAGACUGCC [C8G C15U U20A G21U G22C A24G G33C] | 0.03
GGAAGAGCUCAACAGUGCGUGGCAAAGUGGCUGUGGCUAGACUGCC [C3A C15G A16U] | 0.43
GGCAGAGCUCAACACAGCGUGGCAAUGUGGCUAUGGCUUGACUGCC [A26U G33A A39U] | 0.04
GGCAGAGCUCAGCACAGCGUGGCAAAGUUGUUGUGGCUAGACUGCC [A12G G29U C31U] | 0
GGCACAGCUCAACACAGCGUGACACAGUGGCUGUGGCUAGACUGCC [G5C G22A A25C] | 0.05
UAAAGAGCUCAACACAGCGUGGCAAAGUGGCUGUGGCCAGACUGCC [G1U G2A C3A U38C] | 1.48
GGCAGAGCUCAACACCGCGUUGCAAAGUGGCUGUGGCUAGACUGAC [A16C G21U C45A] | 0.05
GUCAGCGCUCAACACAGCAUGGCAAAUUGGCUGUGGCUAGACUUCC [G2U A6C G19A G27U G44U] | 0.06
GGCAGAGCUCAACACAGUGUGGCAUAAUGGCUAUGGCUAGACUGCC [C18U A25U G27A G33A] | 0.18
GGCAGAGCGCAACAAAGCGUGGCAAAGUGGCUGUGGCUACACUGCC [U9G C15A G40C] | 0.07
GGCGGAGCUCAACAUAGCAUGGCGAAGUGGAUGUGGCUAGACUGCC [A4G C15U G19A A24G C31A] | 1.73
GGCAGAGCUGAACACAGCGUGGCAAAUUGGCUGUGGUUAGACUGCC [C10G G27U C37U] | 0.01
GGCAGAGGUCAACACAGCGUUGCAAAGUGCCUGUGGAUAGACUGCC [C8G G21U G30C C37A] | 0.07
GGCAGUGCUCAACAAAGCGUGGCAAAAUGGGUGUUGGUAGACUGCC [A6U C15A G27A C31G G35U C37G] | 0.03
AGCAGAGCUCAAGACAGCGUGACAAAGCGGCUGUGGCUAGACUGCC [G1A C13G G22A U28C] | 0.13
GGCAGUGCGCAACGCAGCGUGACAACGCGGCUGUGCCUAGACUGCC [A6U U9G A14G G22A A26C U28C G36C] | 0.06
GGCAGAGCUCAACACACCGUGCUAAAGUGGCUGUGGCUAGACUGCC [G17C G22C C23U] | 0.52
GGCAGACCUCAACACAGCGUGGCAAAGUGGCUGUGGCUAGUAUGCC [G7C A41U C42A] | 0.01
GGCAGACCUCAACACAGCGUGGCAAAGUGGCUGUUGCUACACUGCC [G7C G35U G40C] | 0.21

Variant | self-cleavage
GCCAUAGCUCAACACAGCGUGGCAAAGUGCCUGUGGCUAGACUGCC [G2C G5U G30C] | 0.06
GGCAGAGCUCAACACAGCUUGGGAUAGUGGCUGUGGCUAAACUGCC [G19U C23G A25U G40A] | 0.02
GGCACAGCUCAACACAGCGAGGCAAAGUGGCUGUAGGUAGCCUGCC [G5C U20A G35A C37G A41C] | 0.1
GGCCGAGCCCCACACAGCGUGCCAACGUGGCUGUGGCUAGACUGCC [A4C U9C A11C G22C A26C] | 0.03
GUCACAGCUCAACACAGCGUGGCAAAAUGGCUUUGGCUACACUGCC [G2U G5C G27A G33U G40C] | 0
GGCAGAGCUGAACACAGCGCCGCAAAGUGGCUGUGGCUAGACUGCC [C10G U20C G21C] | 0.02
GGCAGAGCUCAAGACAGCGUGUCAAAGUGGCUGUGGCUCGACUGCC [C13G G22U A39C] | 0.03
GGCAGAGCUCAACACAGCGUGACAAAGUGGCUGUGGCGAGUCUGCC [G22A U38G A41U] | 0.01
GGCAGAGCUCAAUACAUCUUGGCAAAGUGGCUGUGGCUAGACUGCC [C13U G17U G19U] | 0.08
GGCAGAGCUCAACAAAAAGUGGCAAAUUGGCUGUGGCUAGACUGCC [C15A G17A C18A G27U] | 0.02
GGCAGAGCACAACACAGCGUGGCAACCUGGCGGUGGCUAGACUGCC [U9A A26C G27C U32G] | 0.03
GGGAGAGCUGUACACAGCGUGGCAAAGUGACUUUGGUUGGCCUGCC [C3G C10G A11U G30A G33U C37U A39G A41C] | 0.01
GGCAAAGCUCAACACAGGGUGGUAAAGUGGCUAUGGCUAGACUGCC [G5A C18G C23U G33A] | 0.1
GGGAGAGCUCGACACAGCGUGGCAAAGUUCCUGUGGCUAGACUGCC [C3G A11G G29U G30C] | 0.04
GGCAGAGCUCAACACAGUGUGGCAAAGAGGCUGUGUCUAGACUGCC [C18U U28A G36U] | 0.06
GGCAGACCUCAACACAGCGUGGCCAAGUGGCUGUGGCUAGACUCCC [G7C A24C G44C] | 0.04
GGCAGAUCUCUACACAGCGUGGCAAAGUGGCUUUGGCUAGACUCAC [G7U A11U G33U G44C C45A] | 0.03
GGCAAAGCUCAACCCAGCGUGGCAAAGUGGCUGUGGCUAGACAGCA [G5A A14C U43A C46A] | 0.08
